# From the supplement of paper PMC4604168 (melanoma cell lines)
# The other results are listed elsewhere or left out. Repeats are few or missing, and single values can be far off.
# Legend:
# Test in all cases: cell count relative to DMSO control; melanoma cells; higher = more viable cells
# Details in all cases: library dose: low library concentration; 72 h
# MZ2-MEL = test system: MZ2-MEL
# MeWo = test system: MeWo
# RPMI7951 = test system: RPMI7951
# RVH-421 = test system: RVH-421
# SkMel28 = test system: SkMel28
# SkMel2 = test system: SkMel2
# SkMel30 = test system: SkMel30
# SkMel5 = test system: SkMel5
# UACC257 = test system: UACC257
# UACC62 = test system: UACC62
# 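Also: cell number obtained by counting DAPI-stained nuclei in high-throughput microscope images with image analysis software, screen run in 1,536-well plates.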
Structure (SMILES),cell count (MZ2-MEL),cell count (MeWo),cell count (RPMI7951),cell count (RVH-421),cell count (SkMel28),cell count (SkMel2),cell count (SkMel30),cell count (SkMel5),cell count (UACC257),cell count (UACC62)
"Cc1cc(Nc2cc(N3CCN(C)CC3)nc(/C=C/c3ccccc3)n2)n[nH]1 + Oc1nc(-c2ccc(C(F)(F)F)cc2)nc2c1CSCC2 [XAV939] (first compound 0.04 µM, partner dose 2 µM)",101%,94.9%,101%,86.2%,83.6%,92.7%,98.8%,83.9%,89.6%,85.3%
"CC(C)C[C@H](NC(=O)[C@H](Cc1ccccc1)NC(=O)c1cnccn1)B(O)O [Bortezomib] + Cc1ccc(NC(=O)c2cccc(N(C)C)c2)cc1NC(=O)c1ccc(O)cc1 [ZM336372] (first compound 0.001 µM, partner dose 2 µM)",43.1%,86.6%,75.5%,52.1%,93.3%,114%,95.9%,85.7%,65.8%,69.2%
"CC(C)C[C@H](NC(=O)[C@H](Cc1ccccc1)NC(=O)c1cnccn1)B(O)O [Bortezomib] + CN(C)S(=O)(=O)c1ccc2c(c1)/C(=C/c1cc3c([nH]1)CCCC3)C(=O)N2 [SU6656] (first compound 0.001 µM, partner dose 0.4 µM)",88.4%,94.6%,85.6%,92.5%,86.6%,111%,124%,86.5%,66.8%,56.1%
"Cn1c(=O)n(-c2ccc(C(C)(C)C#N)cc2)c2c3cc(-c4cnc5ccccc5c4)ccc3ncc21 + Cn1cncc1[C@@](N)(c1ccc(Cl)cc1)c1ccc2c(c1)c(-c1cccc(Cl)c1)cc(=O)n2C [tipifarnib] (first compound 0.004 µM, partner dose 0.01 µM)",94%,80.8%,97.7%,75.1%,53.5%,74.8%,71%,109%,55.9%,62%
"CC(C)C[C@H](NC(=O)[C@H](Cc1ccccc1)NC(=O)c1cnccn1)B(O)O [Bortezomib] + O=C(O)c1ccc(-c2c[nH]c3ncc(-c4ccccc4)cc23)cc1C1CCCC1 [GSK650394] (first compound 0.001 µM, partner dose 0.16 µM)",70.5%,89.8%,77.1%,48.1%,80.7%,91.4%,94.7%,84.6%,78.3%,83.1%
"Cc1cc(Nc2cc(N3CCN(C)CC3)nc(/C=C/c3ccccc3)n2)n[nH]1 + O=C(O)c1ccc(-c2c[nH]c3ncc(-c4ccccc4)cc23)cc1C1CCCC1 [GSK650394] (first compound 0.04 µM, partner dose 0.16 µM)",96.1%,79.8%,110%,99.2%,76%,90.9%,117%,97.5%,81.3%,72.5%
"Cc1cc(Nc2cc(N3CCN(C)CC3)nc(/C=C/c3ccccc3)n2)n[nH]1 + O=c1cc(-c2cccc3c2Sc2ccccc2S3)oc(N2CCOCC2)c1 [KU55933] (first compound 0.04 µM, partner dose 1 µM)",112%,39.7%,98.1%,90.7%,96.5%,102%,82.8%,104%,117%,102%
"COc1ccc(C2=N[C@@H](c3ccc(Cl)cc3)[C@@H](c3ccc(Cl)cc3)N2C(=O)N2CCNC(=O)C2)c(OC(C)C)c1 [Nutlin-3] + N#Cc1c(O)c2c(-c3ccc(-c4ccccc4O)cc3)csc2[nH]c1=O [A769662] (first compound 0.1 µM, partner dose 2 µM)",98.4%,107%,99.7%,85.8%,91.8%,90.7%,96.7%,103%,92.4%,95.4%
"Cc1cc(Nc2cc(N3CCN(C)CC3)nc(/C=C/c3ccccc3)n2)n[nH]1 + CO[C@@H]1[C@H](N(C)C(=O)c2ccccc2)C[C@H]2O[C@]1(C)n1c3ccccc3c3c4c(c5c6ccccc6n2c5c31)C(=O)NC4 [Midostaurin] (first compound 0.04 µM, partner dose 0.08 µM)",93.1%,93%,86.5%,79.8%,84.6%,92.2%,101%,85.9%,80.4%,103%
"Cc1cc(Nc2cc(N3CCN(C)CC3)nc(/C=C/c3ccccc3)n2)n[nH]1 + COc1ccc(COc2ccc(Cc3cnc(N)nc3N)cc2OC)cc1 [GW2580] (first compound 0.04 µM, partner dose 1 µM)",103%,90.1%,86.8%,114%,84.4%,101%,95.9%,100%,99.8%,94%
"Cn1c(=O)n(-c2ccc(C(C)(C)C#N)cc2)c2c3cc(-c4cnc5ccccc5c4)ccc3ncc21 + CCCCCCCCCCCC1=C(O)C(=O)C=C(O)C1=O [Embelin] (first compound 0.004 µM, partner dose 1.2 µM)",108%,87.6%,99.7%,109%,93%,87.4%,71.7%,93.8%,110%,100%
"Cc1cc(Nc2cc(N3CCN(C)CC3)nc(/C=C/c3ccccc3)n2)n[nH]1 + NC(=O)Nc1cc(-c2cccc(F)c2)sc1C(=O)N[C@H]1CCCNC1 [AZD7762] (first compound 0.04 µM, partner dose 0.02 µM)",102%,92.7%,80.3%,112%,108%,103%,112%,101%,127%,82.8%
"Cc1cc(Nc2cc(N3CCN(C)CC3)nc(/C=C/c3ccccc3)n2)n[nH]1 + COc1cc(Nc2ncc(F)c(Nc3ccc4c(n3)NC(=O)C(C)(C)O4)n2)cc(OC)c1OC [Tamatinib] (first compound 0.04 µM, partner dose 0.4 µM)",85%,86.4%,87.3%,90.6%,87.4%,92.5%,91%,87.3%,59.6%,92.2%
"Cc1cn(-c2cc(NC(=O)c3ccc(C)c(Nc4nccc(-c5cccnc5)n4)c3)cc(C(F)(F)F)c2)cn1 [nilotinib] + O=C(Nc1ccccc1)c1cc([N+](=O)[O-])ccc1Cl [GW9662] (first compound 0.2 µM, partner dose 2 µM)",93.4%,96.3%,87.2%,96.5%,96.5%,92.4%,83.3%,91%,70.5%,86.9%
"Cn1c(=O)n(-c2ccc(C(C)(C)C#N)cc2)c2c3cc(-c4cnc5ccccc5c4)ccc3ncc21 + COc1ccc2c(c1)CCC1C2CCC2(C)C(NCCCCCCN3C(=O)C=CC3=O)CCC12 [U73122] (first compound 0.004 µM, partner dose 0.4 µM)",106%,88.7%,67.8%,109%,90.5%,88.6%,78.4%,92.5%,102%,93.1%
"Cc1cc(Nc2cc(N3CCN(C)CC3)nc(/C=C/c3ccccc3)n2)n[nH]1 + Cc1cc([N+](=O)[O-])ccc1NS(=O)(=O)c1cc(Cl)ccc1Cl [FH535] (first compound 0.04 µM, partner dose 1 µM)",92.4%,87.5%,95.5%,84%,85.3%,94.4%,81.7%,89.2%,77.9%,72.5%
"CC(C)C[C@H](NC(=O)[C@H](Cc1ccccc1)NC(=O)c1cnccn1)B(O)O [Bortezomib] + CO[C@@H]1[C@H](N(C)C(=O)c2ccccc2)C[C@H]2O[C@]1(C)n1c3ccccc3c3c4c(c5c6ccccc6n2c5c31)C(=O)NC4 [Midostaurin] (first compound 0.001 µM, partner dose 0.08 µM)",71.3%,78.4%,59.2%,58.1%,108%,80.3%,108%,91.6%,59.5%,75.6%
"CC(C)C[C@H](NC(=O)[C@H](Cc1ccccc1)NC(=O)c1cnccn1)B(O)O [Bortezomib] + COc1cc2ncnc(Nc3ccc(Oc4ccccc4)cc3)c2cc1OC [SrcI1] (first compound 0.001 µM, partner dose 2 µM)",55.1%,93.6%,85.4%,30.9%,87.5%,96.4%,76.9%,110%,68.3%,73.8%
"Cc1cc(Nc2cc(N3CCN(C)CC3)nc(/C=C/c3ccccc3)n2)n[nH]1 + N#Cc1c(O)c2c(-c3ccc(-c4ccccc4O)cc3)csc2[nH]c1=O [A769662] (first compound 0.04 µM, partner dose 2 µM)",95.7%,100%,109%,116%,96.2%,95.7%,102%,87.9%,108%,86.3%
"CC(C)C[C@H](NC(=O)[C@H](Cc1ccccc1)NC(=O)c1cnccn1)B(O)O [Bortezomib] + C[C@@H]1CCN(C(=O)CC#N)C[C@@H]1N(C)c1ncnc2[nH]ccc12 [CP690550] (first compound 0.001 µM, partner dose 1 µM)",76%,85.1%,78.8%,66%,94%,93.9%,89.1%,103%,63.7%,90.8%
"COc1ccc(C2=N[C@@H](c3ccc(Cl)cc3)[C@@H](c3ccc(Cl)cc3)N2C(=O)N2CCNC(=O)C2)c(OC(C)C)c1 [Nutlin-3] + c1cc(-c2cnn3cc(-c4ccc(OCCN5CCCCC5)cc4)cnc23)ccn1 [Dorsomorphin] (first compound 0.1 µM, partner dose 0.4 µM)",95%,90.5%,104%,99.8%,84.5%,101%,87.1%,88.3%,68.7%,102%
"COc1ccc(C2=N[C@@H](c3ccc(Cl)cc3)[C@@H](c3ccc(Cl)cc3)N2C(=O)N2CCNC(=O)C2)c(OC(C)C)c1 [Nutlin-3] + Oc1nc(-c2ccc(C(F)(F)F)cc2)nc2c1CSCC2 [XAV939] (first compound 0.1 µM, partner dose 2 µM)",100%,106%,78.4%,59.4%,97.7%,100%,119%,101%,89.9%,89.1%
